Out of some 94,000 compounds screened, about 4,000 (4.3%) were called active. Inconclusive results, whose numbers are uncertain, are shown with a selection of clear calls. The call rests on the fitted dose curve; in most records, active means well fitted inhibition curve with a large enough effect; inconclusive means small, poorly fitted or top-dose-only effect; inactive means no such curve, though single readings can be large or run the other way. Where the call is inconclusive, the potency comes from a doubtful curve fit.
Assay: Cytotoxic Profiling in NIH 3T3 Cell Line of Diverse Libraries Using Quantitative High-Throughput Screening; further: nearly all actives have a fitted effect of over 55% in size
Details: NIH 3T3 viability, CellTiter-Glo ATP luminescence, 48-72 h; activity change, negative = cytotoxicity: at 96.7 µM (top of the series) unless noted; series mostly up to 96.7 µM
Outline: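 Viability of NIH 3T3 cells after 48 or 72 hr compound treatment at 37 °C was assessed by CellTiter-Glo, with luminescence imaged following a 10 min room-temperature step.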
On the % scale 0 is the no-effect control and ±100 the full control effect; potency means the concentration at half of the fitted maximal effect; tags describe the fitted curve by direction and shape.

Structure (SMILES) | activity change, negative = cytotoxicity | Potency | outcome
CN(Cc1cccc(F)c1)C1CCOc2ccccc21 (centres undefined) | inactive: -14.9% [at 138 µM] | – | –
O=C(NCC(F)F)C1CCCN1C(=O)c1cccc(-c2cccnc2)c1 (centres undefined) | inactive: -12.8% | – | –
Cc1cccc(C)c1-c1nc(C(=O)NC(C)C)n2ccccc12 | – | inconclusive: 63.1 µM [inhibitor, partial curve, poor fit] | –
COc1ccc(CN2C[C@@H]3C[C@@H](C(=O)O)N(C(C)=O)c4cccc(c43)C2=O)cc1 | – | inconclusive: 31.6 µM [inhibitor, partial curve, poor fit] | –
Cn1ncc2c(C(=O)NC3CCCC3)cc(-c3ccccc3F)nc21 | – | inconclusive: 89.1 µM [inhibitor, partial curve, poor fit] | –
Cc1nonc1CN(C)C(=O)c1coc(COc2ccc(F)cc2Cl)n1 | – | inconclusive: 56.2 µM [inhibitor, partial curve, poor fit] | –
C=CCN(C)C(=O)C[C@@H]1c2nc(NC(=O)c3cccs3)sc2C[C@@H]2[C@](C)(CO)[C@H](O)CC[C@]21C | inactive: -7.31% | – | –
CC(C)(Cc1ccc(F)cc1)NC(=O)CC1C(=O)NCCN1Cc1ccoc1 (centres undefined) | – | inconclusive: 100 µM [inhibitor, partial curve, poor fit] | –
O=C(c1ccc(F)cc1)N1CCCN(c2ccc3nnc(-c4ccccc4)n3n2)CC1 | – | inconclusive: 56.2 µM [inhibitor, partial curve, poor fit] | –
CC(C)n1cc2cc(C(=O)N3CCN(Cc4ccc5c(c4)OCO5)CC3)sc2c1 | inactive: -23.3% | – | –
Cc1nnc(-c2cc(-c3cccc(N(C)C)c3)ccn2)n1Cc1ccccc1 | – | active: 50.1 µM | –
O=[S+]1([O-])NCC2(CCCN(Cc3ccc(F)cc3)C2)Nc2ccccc21 (centres undefined) | – | inconclusive: 50.1 µM [inhibitor, partial curve, poor fit] | –
O=C(NC1CCCN(c2ccc3nnc(C4CC4)n3n2)C1)C1CC1 (centres undefined) | inactive: 0.521% | – | –
Cc1cccc(OCC(=O)N2CCC[C@H]2c2nc(-c3ccc(F)cc3)n[nH]2)c1 | – | inconclusive: 50.1 µM [inhibitor, partial curve, poor fit] | –
CCN1c2cc(C(=O)NCc3cc(OC)ccc3OC)ccc2C(=O)N2CCCCC21 (centres undefined) | – | inconclusive: 12.6 µM [inhibitor, full curve, poor fit] | –
Cn1ncc2c(C(=O)N3CCOCC3)cc(-c3cccc(C(F)(F)F)c3)nc21 | – | inconclusive: 44.7 µM [inhibitor, partial curve, poor fit] | –
CC(C)(C)CC(=O)N1CCCC(C(=O)Nc2cccc(-c3ccc(F)cc3)c2)C1 (centres undefined) | – | inconclusive: 31.6 µM [inhibitor, partial curve, poor fit] | –
O=C(NCc1cccc(F)c1)c1nc2c(o1)CCN(CCCc1ccccc1)CC2 | – | active: 89.1 µM | –
Cc1nn(-c2ccccc2)c2c1C(C(C)C)N(C1CN([S+](=O)([O-])c3c(C)noc3C)C1)C2=O (centres undefined) | inactive: -20.2% | – | –
COCCNC(=O)c1nc(-c2cccc(C(F)(F)F)c2)c2cnccn12 | inactive: -23.5% | – | –
Cc1cc(-c2cc3c(ccn3C)c(C(=O)NCc3c(C)cc(C)[nH]c3=O)n2)ccn1 | – | inconclusive: 44.7 µM [inhibitor, partial curve, poor fit] | –
Cc1cccc(OCCc2noc(C3CCCN(C(=O)c4ccoc4)C3)n2)c1 (centres undefined) | – | inconclusive: 39.8 µM [inhibitor, partial curve] | –
COc1ccccc1-c1ccc(CN2C3CCC2CN(C(C)C)C3)cc1 | – | inconclusive: 50.1 µM [inhibitor, single point] | –

Structure (SMILES) | activity change, negative = cytotoxicity | Potency | outcome
CCn1c(C2CCCN(C(=O)Nc3ccccc3F)C2)nn(C)c1=O (centres undefined) | inactive: -18.1% | – | –
COc1ccc(NC(=O)C2CCCCC(=O)N2)cc1F (centres undefined) | inactive: 4.18% | – | –
COc1ccc(CN[C@H](C)c2onc(-c3ccc(F)cc3)c2C(=O)O)cc1 | inactive: -5.36% [at 138 µM] | – | –
COc1ccc(Cl)cc1C(=O)N1CCCN(c2cc(-c3ccc(Br)cc3)[nH]n2)CC1 | – | active: 31.6 µM | –
Cc1ncsc1CN1CCC(N2C(=O)C(OCC3CC3)C23CCCCC3)CC1 (centres undefined) | inactive: -27.3% | – | –
CC(=O)N1CCCn2nc(C)c(-c3ccccc3OCc3ccccc3)c21 | – | inconclusive: 79.4 µM [inhibitor, partial curve] | –
COc1ccc(C(=O)N2CCC3(CC2)OC(=O)N(Cc2ccccc2F)C3(C)c2ccccc2)cc1 (centres undefined) | – | active: 35.5 µM | –
COc1ccc(OCC2(C)COc3ccc(C(=O)Nc4cccnc4)cc3N2)cc1 (centres undefined) | – | active: 44.7 µM | –
C=CCN1CC(C(=O)N2CCn3cncc3C2)CCC1=O (centres undefined) | inactive: 2.28% | – | –
COc1cccc(C(=O)N2CCC(N3C[C@H](O)C[C@H]3C(=O)NCc3ccc(F)cc3)CC2)c1 | – | – | inactive
O=C(c1ccccc1)N1CCC(Oc2cccc(F)c2)C1 (centres undefined) | inactive: -24.9% | – | –
CCOC(=O)C1=CN(CC(=O)N(CC)c2cccc(C)c2)S(=O)(=O)N=C1C | inactive: -21.1% | – | –
NC(=O)c1ccc(-c2ncc3cnc(-c4cccc(F)c4)cn23)cc1 | – | inconclusive: 79.4 µM [inhibitor, partial curve, poor fit] | –
CN1[C@@H](CCC(=O)N2CCOCC2)CNC(=O)[C@@H]2[C@H]1CCN2Cc1ncc[nH]1 | inactive: -14% [at 174 µM] | – | –
Cc1nc2cnccn2c1C(=O)NC1CCCCC1 | inactive: -6.26% [at 138 µM] | – | –
Cc1noc(-c2ccc(N3CCC(CN4CCCC4=O)CC3)nc2)n1 | inconclusive: -30.5% [inhibitor] | – | –
CNC(=O)c1cc2cccnn2n1 | inactive: -9.71% [at 174 µM] | – | –
Cc1ccc(-c2cn3cc(C(=O)N4CCN(C)CC4)nc3s2)cc1 | – | inconclusive: 50.1 µM [inhibitor, partial curve, poor fit] | –
O=C1c2c(nc(CNc3ccc(F)cc3)n2Cc2ccccc2)NCCN1CCN1CCCCC1 | – | inconclusive: 70.8 µM [inhibitor, single point] | –
Cc1ccc(NC(=O)N[C@H]2C[C@@H](c3nc(-c4ccc(F)cc4)no3)N(C)C2)cc1 | – | inconclusive: 70.8 µM [inhibitor, partial curve, poor fit] | –
O=C(Cc1c[nH]c2ccccc12)N1CCC(Cc2nc(-c3ccccc3)n[nH]2)CC1 | – | inconclusive: 35.5 µM [inhibitor, partial curve, poor fit] | –
Cc1ccc2nc3n(c2c1)[C@@H](CNS(=O)(=O)c1ccc(C#N)cc1)COC3 | – | inconclusive: 89.1 µM [inhibitor, partial curve, poor fit] | –
COC1CCN(S(=O)(=O)N2C[C@H](c3ccc(C)o3)[C@@H](N)C2)CC1 | inactive: -19.7% | – | –

Structure (SMILES) | activity change, negative = cytotoxicity | Potency | outcome
O=C(NCc1cccs1)c1ccc2oc(-c3ccnc(Cl)c3)nc2c1 | – | inconclusive: 89.1 µM [inhibitor, partial curve, poor fit] | –
CN1c2cc(C(=O)Nc3cccc(Cl)c3)ccc2C(=O)N2CCCCC21 (centres undefined) | – | inconclusive: 44.7 µM [inhibitor, partial curve, poor fit] | –
CCS(=O)(=O)NCC1(COc2cccc(C)n2)C[C@@H](O)[C@@H](O)C1 (some centres undefined) | inactive: -0.595% [at 174 µM] | – | –
O=C(NCc1ccc(F)cc1)c1ccc2nc(-c3cccnc3Cl)oc2c1 | – | inconclusive: 31.6 µM [inhibitor, partial curve] | –
O=C(Nc1ccc2cn[nH]c2c1)c1ccc2c(c1)OCCN(c1ccccc1)C2 | – | active: 39.8 µM | –
Cc1cn2nc(C(=O)NC(C)CCc3ccccc3)cc2c(N2CCCC2)n1 (centres undefined) | – | inconclusive: 70.8 µM [inhibitor, single point] | –
CC(C)OCCCNC(=O)C1CCN(Cc2ccccc2-c2ccccc2F)CC1 | – | inconclusive: 50.1 µM [inhibitor, partial curve, poor fit] | –
COc1cccc(-c2cccc(CCOc3cnc4c(ccn4CC(=O)O)c3)c2)c1 | – | inconclusive: 112 µM [inhibitor, single point] | –
Cc1cccc(OCC(=O)c2ccc3c(c2)N(C(C)C(=O)NCC2CCCO2)C(=O)CO3)c1C (centres undefined) | inactive: -16.5% | – | –
COCCN1CCCCCC(O)c2cc(C(=O)N3CCN(c4cccc(OC)c4)CC3)ccc21 (centres undefined) | – | inconclusive: 31.6 µM [inhibitor, partial curve] | –
CN(Cc1cnn(C)c1)Cc1ccccc1OCC(O)CN1CCCCC1 (centres undefined) | inactive: -25.6% | – | –
CC1(C)[C@H](Cc2cc(COc3ccccc3)on2)C[C@@H]1NC(=O)C1CCCC1 | – | inconclusive: 56.2 µM [inhibitor, partial curve, poor fit] | –
CC1(C)CC(Nc2nccc(-c3cnn(-c4ccccc4)c3)n2)CC(C)(C)N1 | – | active: 20 µM | –
Cn1ncc2c(C(=O)NC3CCCC3)cc(-c3cccc(C(F)(F)F)c3)nc21 | – | inconclusive: 44.7 µM [inhibitor, partial curve, poor fit] | –
O=C(CCc1ccc2c(c1)CN(C(=O)C1CC1)CCO2)NCCCn1cccn1 | inactive: 4.71% | – | –
CCCNC(=O)N1CCOc2ccc(CN3CCc4ccccc4C3)cc2C1 | – | inconclusive: 44.7 µM [inhibitor, partial curve, poor fit] | –
O=C(NCc1ccc(Cl)cc1)C1CCCN(c2ccnc3ccnn23)C1 (centres undefined) | – | inconclusive: 50.1 µM [inhibitor, partial curve, poor fit] | –
CC(C)(C)c1ccc(-n2ncc3c2CCCC3NC(=O)c2c[nH]c(=O)[nH]c2=O)cc1 (centres undefined) | – | inconclusive: 50.1 µM [inhibitor, partial curve, poor fit] | –
CN1C(=O)CO[C@H]2CN(C(=O)C3CC3)C[C@H]21 | – | – | inactive [at 174 µM]
CCc1noc(-c2cn(C3CCN(C(=O)COc4ccc(F)cc4)C3)nn2)n1 (centres undefined) | – | inconclusive: 39.8 µM [inhibitor, partial curve, poor fit] | –
COC(=O)CNC(=O)c1cc(-c2ccccc2)nc2c1cnn2C | inactive: -28.9% [at 138 µM] | – | –
Cc1cc(C(=O)N2CC[C@@H]3CN(Cc4ccccc4)[C@@H]3C2)nn1C | inactive: 3.88% | – | –
OCc1cccc(-c2ccc3ncc(Nc4ccnc(N5CCOCC5)c4)n3n2)c1 | – | inconclusive: 56.2 µM [inhibitor, partial curve, poor fit] | –
